Values joined by “and” are separate entries in the source; they are usually repeats but may differ in a detail not shown here. Identical values can stand only once.
Target: the molecule itself
Test: native gel or EMSA; clear native electrophoresis (CN-PAGE), normal polarity (cathode-anode), 4-10% gradient gels, HEPES/imidazole pH 7.0 (40.0/15.3, 88.9/34.0 or 133.2/50 mM in the gel), 150 V, 4 °C, 5 h, ten micrograms of purified enzyme; masses from ferritin and albumin markers, means of the gel conditions; also after 10 mM DTT; dimers to higher aggregates

| Protein | stoichiometry N |
| --- | --- |
| Homo sapiens triosephosphate isomerase (enzyme, triosephosphate isomerase (TIM), Homo sapiens; gene cloned into pET-3aHIS; also called HsTIM; Hs; source: E. coli Bl21 (DE3)-p-Lys S, purified (ammonium sulphate, Butyl-650M, Source 15Q)) not shown | 16 dimers in the aggregate and 11 dimers in the aggregate and 8.5 dimers in the aggregate and 7.5 dimers in the aggregate |
| Homo sapiens triosephosphate isomerase with histidine tag (enzyme, triosephosphate isomerase (TIM), Homo sapiens; gene cloned into pET-3aHIS; Tag of 6 histidines from the vector pET-3aHIS; also called HsTIM-6H; HsTIMHIS; source: E. coli Bl21 (DE3)-p-Lys S, purified (ammonium sulphate, Butyl-650M, Source 15Q)) not shown | 17 dimers in the aggregate and 11.5 dimers in the aggregate and 9 dimers in the aggregate and 7.5 dimers in the aggregate |

— PMC6987189, “Native aggregation is a common feature among triosephosphate isomerases of different species” (Scientific Reports, 2020)
